Measured values reported in patent US11865359B2, “Tumor imaging with x-rays and other high energy sources using as contrast agents photon-emitting phosphors having therapeutic properties” (IMMUNOLIGHT, LLC., priority 2014, dated 2024).

Tested on: 4T1-Her2 breast cancer cells
Assay: Annexin V flow cytometry apoptosis assay, 1Gy 80kVp x-ray
Settings: cells with both energy modulation agents and psoralen, 1Gy x-ray at 80kVp

## O=c1ccc2cc3ccoc3cc2o1 [psoralen]
  apoptosis: statistically significant (p<0.001) increase in apoptosis
